The record followed here is PubChem BioAssay AID488969 (Vanderbilt High Throughput Screening Facility, 2010).

Whole data set: some 110,000 compounds, median “z-score” near -0.1, cut for the highest 2% near 2. Some of the results follow.

In the experiment the target is Metabotropic glutamate receptor 8 (Rattus norvegicus) (UniProt P70579). The experiment in a line: rat mGluR8 modulators via GIRK flux, primary screen, cell-based, thallium flux, HTS (AID 488969). Conditions: HEK293 rat mGluR8, GIRK (G protein-gated inwardly rectifying potassium channel) thallium flux, FluoZin2; at 10 µM; stronger effect = higher value; submaximal glutamate (EC20) added with thallium.
Sequence of UniProt P70579 (P70579 whole entry, looked up): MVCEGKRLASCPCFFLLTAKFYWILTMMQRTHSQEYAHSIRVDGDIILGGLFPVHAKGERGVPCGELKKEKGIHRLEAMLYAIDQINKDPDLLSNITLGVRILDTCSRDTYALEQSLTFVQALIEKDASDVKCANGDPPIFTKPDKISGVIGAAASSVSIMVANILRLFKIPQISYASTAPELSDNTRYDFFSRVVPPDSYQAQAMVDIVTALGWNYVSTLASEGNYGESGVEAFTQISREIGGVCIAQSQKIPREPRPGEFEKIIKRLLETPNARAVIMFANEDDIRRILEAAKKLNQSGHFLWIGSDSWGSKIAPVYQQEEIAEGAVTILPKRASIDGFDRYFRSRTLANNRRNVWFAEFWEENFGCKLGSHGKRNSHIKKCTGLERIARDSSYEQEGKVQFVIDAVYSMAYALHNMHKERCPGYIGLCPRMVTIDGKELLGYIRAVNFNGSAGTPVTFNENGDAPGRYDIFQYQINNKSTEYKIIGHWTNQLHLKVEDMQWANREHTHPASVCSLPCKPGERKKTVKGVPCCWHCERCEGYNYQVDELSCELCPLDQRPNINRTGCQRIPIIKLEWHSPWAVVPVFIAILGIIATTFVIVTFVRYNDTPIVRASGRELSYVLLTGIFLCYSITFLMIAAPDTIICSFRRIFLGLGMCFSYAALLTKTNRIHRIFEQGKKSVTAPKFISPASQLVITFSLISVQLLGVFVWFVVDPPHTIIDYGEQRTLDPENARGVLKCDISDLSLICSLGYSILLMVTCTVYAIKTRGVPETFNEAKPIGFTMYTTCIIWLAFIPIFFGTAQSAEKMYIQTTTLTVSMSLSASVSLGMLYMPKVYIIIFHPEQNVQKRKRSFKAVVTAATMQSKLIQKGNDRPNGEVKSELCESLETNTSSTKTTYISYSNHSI
Molecule `O=C(NCC1CCCO1)C1CCC(=O)N1CCc1ccccc1` (stereo unspecified) showed a z-score of 0.182.

As for `Cc1cc(C)cc(N(CC(=O)N2CCC(C)CC2)S(C)(=O)=O)c1`, the z-score was found to be 0.413.

For the molecule `COc1cccc(NS(=O)(=O)CC23CCC(CC2=O)C3(C)C)c1` (stereo unspecified), the z-score was -0.22.

As for `COc1cc(CCC(=O)Nc2cccc(S(=O)(=O)N(C)C)c2)cc(OC)c1OC`, the z-score amounted to 0.738. The value for `COc1ccc(CCNC(=O)CN2CCN(Cc3ccc(F)cc3)C2=O)cc1OC` was -0.0649; that for `Cc1cc([N+](=O)[O-])ccc1NCc1ccc2ccccc2c1` was 0.663; that for `CCn1c2ccccc2c2cc(NC(=S)N3CCOCC3)ccc21` was -0.0615.

As to `Oc1ccccc1-c1n[nH]c(=S)n1Cc1ccco1`, the z-score was -0.0896. For the molecule `Cc1cc(NCc2ccco2)n2c(nc3ccccc32)c1C#N`, the z-score was -0.413. `COCCCNC(=O)C(C#N)c1nc2ccccc2nc1N1CCCC1` (stereo unspecified): the z-score is -0.459. Consider `N/C(=N\OC(=O)CCC1CCCCC1)c1ccccn1`, for which the z-score came to 0.237. The value for `Cc1ccc(S(=O)(=O)NNc2nc3ccccc3nc2C(F)(F)F)cc1` was -0.286; that for `Cc1ccc(-n2c(C)cc(C)c(C#N)c2=O)cc1Cl` was -0.024; that for `O=C(CSc1nc2ccccc2[nH]1)NCc1ccc2c(c1)OCO2` was 0.0474.

As to `Cc1onc(-c2c(F)cccc2Cl)c1C(=O)NCc1cccs1`, the z-score was -0.0942. The value for `Cc1ccc2nc(-c3ccncc3)c(Nc3ccccc3)n2c1` was -0.0153. In the case of `CCNC(=O)CSc1nnc(-c2ccccc2)n1-c1ccc(OCC)cc1`, the z-score is -0.191. On to `CCc1ccc2c(COn3nnc4ccc(S(=O)(=O)N(C)C)cc43)cc(=O)oc2c1`, for which the z-score was found to be 0.082. As for `COc1ccc(C2C(C#N)=C(N)Oc3n[nH]c(C)c32)cc1Cn1nc(C)c([N+](=O)[O-])c1C` (stereo unspecified), the figure is -0.191; as for `O=C(Nc1ccc(Cl)c(-c2nc3ccccc3[nH]2)c1)c1cccnc1`, -0.295.

Turning to `CCSc1nnc(NS(=O)(=O)c2ccc(C)cc2)s1`, the z-score is -0.295. With `CCCCOC(=O)Nc1cc(Cl)ccc1C`, the z-score is -0.15. In turn, `CC(C)OP(=O)(OC(C)C)C(NC(=O)c1cccc([N+](=O)[O-])c1)C(N)=O` (stereo unspecified) yielded a z-score of 0.00819.

In the case of `COc1ccc(OC)c(C2CC(=O)NC(SC)=C2C#N)c1` (stereo unspecified), the z-score was 0.894. Regarding `O=C(N/N=C/c1ccco1)c1ccccn1`, the z-score is -0.78. The value for `COc1cc2[nH]c(=S)n(NC(=O)c3ccccc3)c(=O)c2cc1OC` was -0.0244; that for `CCOC(=O)c1ccc2c(c1)n(CC)c(/C=C/Nc1ccccc1)[n+]2CC` was 0.832. Consider `Cc1ccc(NC(=O)CO/N=C/c2ccc(N(C)C)cc2)cc1`, for which the z-score is -0.183. As for `COc1ccc(C(=O)CC(c2ccccc2)C2CCCCC2=O)cc1` (stereo unspecified), the z-score was -0.449. Take `O=C(CC12CC3CC(CC(C3)C1)C2)NC(=S)NCc1ccccc1`: the z-score is -0.0656.

As for `COCCCn1c(-c2ccc(OC)cc2)nc2nc3ccccc3nc21`, the z-score was -0.00158.

Take `COC(=O)c1sc2cc(C(F)(F)F)cnc2c1-c1ccccc1`: the z-score is -0.197.

The molecule `COc1ccc(CCNC(=O)c2cc(-c3cc(C)c(C)cc3O)n[nH]2)cc1OC` registered a z-score of 0.06. On to `COc1ccc2c3c(cccc13)N(C)N=C2C`, for which the z-score is -0.228.

Regarding `O=C(CSc1ccc(Cl)cc1)Nc1ccccc1Oc1ccccc1`, the z-score was -0.0915. `CCC(C)NC(=O)CS(=O)Cc1nc(-c2cccc(C)c2)oc1C` (stereo unspecified): the z-score is -0.207. The value for `Cc1ccc2c(c1)c(CC(=O)Nc1ccc(F)cc1)c(C(=O)O)n2C` was 0.784. As for `Cc1ccc(N2CCN(C(=O)N3CCCC3)CC2)cc1Cl`, the z-score worked out at 0.581. The value for `C=C(C)C1CC=C(C)/C(=N/NC(=O)c2ccc(NC(=O)c3cccc(C)c3)cc2)C1` (stereo unspecified) was 0.0945; that for `c1ccc(C2CCC3(CC2)Oc2ccccc2C2CC(c4cccnc4)=NN23)cc1` (stereo unspecified) was -0.102. As for `C=C(Cl)COC(=O)[C@H]1C2C=CC(C2)C1C(=O)O` (stereo partly specified), the figure is 0.518; as for `O=C(Nc1nccs1)c1ccc(CSc2nnnn2-c2ccccc2)cc1`, 0.679; as for `COc1cccc(Oc2cnc(N)nc2-c2ccc(OC)cc2O)c1`, -0.837. `O=P(COCCOCP(=O)(c1ccccc1)c1ccccc1)(c1ccccc1)c1ccccc1` displayed a z-score of 0.00375.

`N#Cc1c(-c2ccccc2Cl)cc(-c2ccccc2)nc1Br`: the z-score was -0.186.

On to `Cc1ccccc1-c1nc(CN2CCC(C(=O)N3CCN(c4ccccn4)CC3)CC2)c(C)o1`, for which the z-score is -1.13. As for `CCOC(=O)CC(NS(=O)(=O)Cc1ccccc1)c1ccc(C)cc1` (stereo unspecified), the figure is -0.0413; as for `CN(Cc1nc2ccccc2n1C)S(=O)(=O)c1ccc(Cl)cc1`, 0.959; as for `CC(CCc1ccccc1)NC(=O)CN1CCN(Cc2ccc(Cl)cc2)C1=O` (stereo unspecified), -0.793. The value for `CCc1ccc(OC)c(S(=O)(=O)Nc2ccccc2C)c1` was 0.0568. In the case of `COc1ccc(NC(=O)N(Cc2cc3cc(OC)ccc3[nH]c2=O)CC2CCCO2)cc1` (stereo unspecified), the z-score is -0.553. Take `O=C(Nc1ccc(CN2CCCCC2)cc1)c1ccc(Br)o1`: the z-score was 0.356.

On to `O=C(Cn1c(-c2ccccc2)noc1=O)Nc1ccc(N2CCCCCC2)cc1`, for which the z-score is 0.171. As for `Nn1c(SCC(=O)N2CCOCC2)nnc1-c1ccco1`, the figure is 0.245; as for `CCCC(=O)NC(=S)Nc1ccc(N2CCOCC2)c(Cl)c1`, 0.242; as for `CCC(C)NS(=O)(=O)c1ccc(NC(=O)c2c(-c3ccccc3)noc2C)cc1` (stereo unspecified), -0.154. As for `CCN(CC)S(=O)(=O)c1cc(C(=O)NC2=NCCS2)ccc1Cl`, the z-score was -0.273. Turning to `C=CCOc1c(Br)cc(/C=N\n2nnnc2N)cc1OC`, the z-score was determined as 0.0244.

`COc1ccc(C(=O)NC(=S)NC(C)(C)C)cc1Br` yielded a z-score of 0.436.

In the case of `COc1cc2c(cc1NC(=O)c1cc(-c3ccccn3)nc3ccccc13)oc1ccccc12`, the z-score was determined as 0.43. For the molecule `COc1cccc(C(=O)Nc2nc(-c3ccc4c(c3)OCO4)cs2)c1`, the z-score turned out to be 0.336. As to `Cc1ccc(S(=O)(=O)NCCOc2nc(N3CCOCC3)nc(N3CCOCC3)n2)cc1`, the z-score was -0.139. For `C=C(C)C1Cc2nc(N)nc(C)c2C1` (stereo unspecified), the z-score was 0.304. As for `COc1ccc(CC(=O)Nc2cccc(/C(C)=N/NC(=O)c3cccc([N+](=O)[O-])c3)c2)cc1`, the figure is -0.184; as for `COc1cc(-c2nnc(COC(=O)C3c4ccccc4Oc4ccccc43)o2)cc(OC)c1OC`, -1.76; as for `CC(C)(C)c1cc(CN2CCN(CCO)CC2)cc(C(C)(C)C)c1O`, 0.154. The value for `COCCNC(=O)C(=O)N/N=C(\C)CC(=O)Nc1ccc(Cl)cc1Cl` was -0.256; that for `Cc1nc2ccc(N3C(=O)CCC3=O)cc2[nH]1` was -0.234.

For `C=CCn1c(-c2ccc(OC)cc2)nc2nc3ccccc3nc21`, the z-score is -0.744.

For the molecule `CC(C)C(C(=O)NCC1CCCO1)N(Cc1ccco1)C(=O)CNS(=O)(=O)c1ccccc1` (stereo unspecified), the z-score is -0.174. The value for `N#Cc1c(N)sc2c1CCN(CCc1ccccc1)C2` was 0.208; that for `N#CC1=C(S)N=C(N)C(c2nc(-c3ccccc3)cs2)C12CCCC2` (stereo unspecified) was 0.271; that for `Cc1cnc(C(=O)OCC(=O)Nc2ccc(Cl)cc2Cl)cn1` was -1.46.

`O=C(Cn1cc2c(n1)CCCC2)NCC1CCCO1` (stereo unspecified) had a z-score of 0.0655. On to `N=C1/C(=C/c2cccn2CCOc2ccccc2)C(=O)N=C2SC=C(c3ccccc3)N12`, for which the z-score was -0.0459.

On to `COc1cc2c(cc1OC)CN(C(=O)COc1ccc(C)c(C)c1)CC2`, for which the z-score is -0.0555. As for `CS(=O)(=O)c1cnc(-c2ccccc2)nc1Oc1ccc(Cl)cc1`, the figure is 0.0557; as for `CCSc1nnc(NC(=O)CCNS(=O)(=O)c2cc(Br)cnc2N)s1`, -0.277. The value for `O=C(CSc1nc(-c2ccccc2)cs1)N1CCc2ccccc21` was 0.269; that for `CCOP(=O)(OCC)C(C#N)=C1SCN(c2ccc(Cl)cc2)CS1` was -0.218; that for `Cc1cccc(Cn2cnc3ccccc32)c1` was -0.29. As for `CC[n+]1c(/C=C/Nc2ccccc2)oc2ccccc21`, the figure is 1.06; as for `Cc1cccc(NC(=O)NCc2ccc3c(c2)cc(C)n3C)c1`, -0.184.

The molecule `COc1ccccc1C(=O)N/C(=C\c1ccc(Br)cc1)C(=O)NCCO` had a z-score of 0.122. Turning to `Cc1cc(NCc2ccccc2)nc(N2CCOCC2)n1`, the z-score was -0.574. Consider `O=[N+]([O-])c1nn(-c2ccc3c(c2)OCCO3)n(O)c1=NC1CCCC1`, for which the z-score was -0.842.

For `Cc1cccc(N2CCN(C(c3ccc(N(C)C)cc3)c3nnnn3C(C)(C)C)CC2)c1C` (stereo unspecified), the z-score was -0.0501.

`CCOc1ccc(/C=N/NC(=O)c2ccc(Cn3cc([N+](=O)[O-])cn3)o2)cc1` gave a z-score of 0.0631. As for `Cc1cccc(Cc2cnc(NC(=O)c3ccc(C)o3)s2)c1`, the figure is -0.0136; as for `Cc1cc(C)cc(C(=O)N2CC(C)OC(C)C2)c1` (stereo unspecified), -0.13; as for `COc1ccc(CC(=O)Nc2c3c(nn2-c2cccc(C)c2C)CS(=O)C3)cc1OC` (stereo unspecified), 0.359.

For `O=C(CN1C(=O)c2ccccc2C1=O)Nc1ccccc1C(=O)NC1CCCCCC1`, the z-score is -0.0277.

Turning to `Cc1cccc(CCNC(=O)C2CCN(S(=O)(=O)c3c(C)noc3C)CC2)c1`, the z-score was found to be 1.08. Turning to `O=C(Nc1nc(COc2ccccc2)cs1)C1CCC1`, the z-score was -0.102. For the molecule `CCOC(=O)c1oc2c(CN3CCCCC3C)c(O)ccc2c(=O)c1-c1ccc(OC)c(OC)c1` (stereo unspecified), the z-score is -0.0625. As for `CCc1cccc(NC(=O)CN(c2ccc(OC)cc2)S(=O)(=O)c2c(C)n[nH]c2C)c1`, the figure is 0.317; as for `CC(C)c1ccccc1NC(=O)c1ccco1`, -0.185; as for `COc1ccc(C2=NOC(C(=O)NCc3ccco3)C2)cc1` (stereo unspecified), 0.00181. As for `Cc1ccc(C(=O)N2CCN(c3cc4c(cc3[N+](=O)[O-])n(C)c(=O)n4C)CC2)cc1`, the figure is 0.0636. Take `O=C(CS(=O)(=O)Cc1ccccc1)Nc1cccnc1`: the z-score is -0.163.

For the molecule `CCOC(=O)C1CCCN(C(=O)c2ccccc2NC(C)=O)C1` (stereo unspecified), the z-score was -0.331. In turn, `CC1CC(C)CN(C(=O)COC(=O)c2ccc[nH]c2=O)C1` (stereo unspecified) returned a z-score of 0.00867. The value for `Cc1noc(C)c1S(=O)(=O)N(CC(=O)N1CCCCCC1)c1ccc(C(C)C)cc1` was 0.616; that for `CC(C)Nc1nc(Cl)nc(NCCOc2ccccc2)n1` was -0.163; that for `COCCNCCCCOc1ccc(Br)cc1C` was 0.358. For `Cc1nc(NC(=O)CSc2nnc(-c3ccc4c(c3)OCO4)o2)c(Cl)cc1Cl`, the z-score is -0.316. On to `CC1(C)CC(=O)c2cn3c(nc2C1)nc1ccccc13`, for which the z-score is -0.735. In the case of `CC1(C)CC(=O)C2=C(C1)OC(N)=C(C#N)C2CCc1ccccc1` (stereo unspecified), the z-score amounted to 0.268. As for `COc1ccc(CNC(=O)C(=O)NCC(c2ccco2)N2CCOCC2)cc1` (stereo unspecified), the figure is -0.00571.

Take `O=C(CN1C(=O)COc2ccccc21)N(Cc1ccccc1)Cc1ccccn1`: the z-score was -0.0299. The value for `Cc1ccc(C(=O)O)cc1NC(=O)c1cccs1` was 0.0239.
